# According to publication PMC4615246 (Nucleus, 2015):
# T1: LacI-CFP-Nup50 (human, UniProt Q9UKX7 1-468)
# T1 sequence: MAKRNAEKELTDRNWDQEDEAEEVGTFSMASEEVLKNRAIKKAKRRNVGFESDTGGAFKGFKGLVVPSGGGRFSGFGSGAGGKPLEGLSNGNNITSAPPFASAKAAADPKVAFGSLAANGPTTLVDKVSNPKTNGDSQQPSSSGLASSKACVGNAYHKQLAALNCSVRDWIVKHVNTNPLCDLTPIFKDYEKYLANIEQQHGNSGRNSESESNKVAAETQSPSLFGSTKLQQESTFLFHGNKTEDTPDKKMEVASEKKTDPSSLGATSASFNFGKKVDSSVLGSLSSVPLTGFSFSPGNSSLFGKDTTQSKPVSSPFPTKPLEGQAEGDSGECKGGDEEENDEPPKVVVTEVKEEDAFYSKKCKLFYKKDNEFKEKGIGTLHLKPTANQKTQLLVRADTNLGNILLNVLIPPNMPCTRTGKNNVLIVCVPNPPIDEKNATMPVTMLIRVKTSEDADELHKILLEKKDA
# T2: LacI-CFP-Nup133 (human, UniProt Q8WUM0 1-1156)
# T2 sequence: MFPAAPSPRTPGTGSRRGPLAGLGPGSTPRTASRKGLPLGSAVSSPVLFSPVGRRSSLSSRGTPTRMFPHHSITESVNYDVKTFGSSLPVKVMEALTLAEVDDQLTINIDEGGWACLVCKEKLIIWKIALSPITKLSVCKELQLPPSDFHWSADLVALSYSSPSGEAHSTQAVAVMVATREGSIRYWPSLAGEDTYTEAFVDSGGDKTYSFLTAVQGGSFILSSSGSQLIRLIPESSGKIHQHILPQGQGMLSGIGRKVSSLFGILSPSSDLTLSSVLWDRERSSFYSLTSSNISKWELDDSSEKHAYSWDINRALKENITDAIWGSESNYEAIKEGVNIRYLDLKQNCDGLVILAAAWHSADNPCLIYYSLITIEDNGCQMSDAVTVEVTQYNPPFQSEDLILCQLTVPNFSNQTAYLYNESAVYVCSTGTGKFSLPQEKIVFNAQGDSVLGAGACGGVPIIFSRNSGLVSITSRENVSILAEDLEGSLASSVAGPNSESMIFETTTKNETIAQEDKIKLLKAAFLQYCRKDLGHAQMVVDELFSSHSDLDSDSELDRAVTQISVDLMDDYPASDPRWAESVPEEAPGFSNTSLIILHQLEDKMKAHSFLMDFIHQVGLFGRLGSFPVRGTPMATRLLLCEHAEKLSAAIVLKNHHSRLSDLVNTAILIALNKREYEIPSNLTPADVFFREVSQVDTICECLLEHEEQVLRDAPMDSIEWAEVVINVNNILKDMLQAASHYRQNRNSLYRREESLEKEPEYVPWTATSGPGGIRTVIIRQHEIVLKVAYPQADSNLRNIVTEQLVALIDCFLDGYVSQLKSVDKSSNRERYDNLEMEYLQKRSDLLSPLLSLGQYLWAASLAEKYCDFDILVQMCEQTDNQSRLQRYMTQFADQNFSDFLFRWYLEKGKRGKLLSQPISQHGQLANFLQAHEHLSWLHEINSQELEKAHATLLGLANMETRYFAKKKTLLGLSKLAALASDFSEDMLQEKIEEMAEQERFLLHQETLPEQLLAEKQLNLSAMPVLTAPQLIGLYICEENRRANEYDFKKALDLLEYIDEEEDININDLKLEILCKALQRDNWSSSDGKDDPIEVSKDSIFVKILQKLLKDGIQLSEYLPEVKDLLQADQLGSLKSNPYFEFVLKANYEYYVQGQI
# T3: LacI-CFP-Nup107 (human, UniProt P57740 1-925)
# T3 sequence: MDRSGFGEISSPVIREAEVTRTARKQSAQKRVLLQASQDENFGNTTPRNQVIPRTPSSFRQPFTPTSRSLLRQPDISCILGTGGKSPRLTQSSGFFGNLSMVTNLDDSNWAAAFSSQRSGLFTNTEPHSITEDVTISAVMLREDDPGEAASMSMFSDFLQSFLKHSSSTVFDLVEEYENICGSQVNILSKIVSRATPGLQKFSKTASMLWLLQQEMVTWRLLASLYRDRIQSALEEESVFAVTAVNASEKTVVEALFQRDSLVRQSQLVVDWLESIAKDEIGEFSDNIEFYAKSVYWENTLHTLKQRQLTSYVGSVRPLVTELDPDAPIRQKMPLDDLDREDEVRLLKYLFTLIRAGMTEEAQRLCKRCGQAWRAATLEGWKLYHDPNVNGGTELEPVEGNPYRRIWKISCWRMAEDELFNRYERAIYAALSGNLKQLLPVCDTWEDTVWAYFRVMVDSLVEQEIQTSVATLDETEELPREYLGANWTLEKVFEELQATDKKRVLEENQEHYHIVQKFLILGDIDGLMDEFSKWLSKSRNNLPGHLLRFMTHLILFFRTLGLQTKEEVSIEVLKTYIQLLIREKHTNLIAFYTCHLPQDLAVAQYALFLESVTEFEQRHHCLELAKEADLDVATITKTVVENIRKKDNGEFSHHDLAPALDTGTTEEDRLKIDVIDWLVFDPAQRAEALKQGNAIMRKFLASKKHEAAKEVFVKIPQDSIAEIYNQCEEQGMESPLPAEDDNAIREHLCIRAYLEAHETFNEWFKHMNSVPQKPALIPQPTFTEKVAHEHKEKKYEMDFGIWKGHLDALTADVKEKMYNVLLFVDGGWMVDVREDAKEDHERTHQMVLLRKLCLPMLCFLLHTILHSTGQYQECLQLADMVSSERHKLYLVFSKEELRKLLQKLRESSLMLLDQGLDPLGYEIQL
# Legend:
# Assay in all cases: LacI/LacO array recruitment in cells
# LacI-CFP-Nup50 = molecular target: T1, LacI-CFP-Nup50
# LacI-CFP-Nup133 = molecular target: T2, LacI-CFP-Nup133
# LacI-CFP-Nup107 = molecular target: T3, LacI-CFP-Nup107
binder,measurement,setting,value
Pom121 (endogenous) (natural protein) MSPAAAAAGAGERRRPIASVRDGRGRGCGGPARAVLLGLSLVGLLLYLVPAAAALAWLTVGATAAWWGLSREPRGSRPLSSFVRKARHRRPLSSFVRKARHRRTLFASPLAKSTANGNLLEPRTLLEGPDPAELLLMGSYLGKPGPPQPAAAPEGQDLRDRPGRRPPARPAPRSPPPRSPPPRSPPPSPPTHRAHHVYPSLPTPLLRPSRRPSPRDCGTLPNRFVITPRRRYPIHQAQYSCLGVLPTVCWNGYHKKAVLSPRNSR[about 450 residues not shown]KQSFLFGTQNTSPSSPAAPAASSAPPMFKPIFTAPPKSEKEGPTPPGPSVTATAPSSSSLPTTTSTTAPTFQPVFSSMGPPASVPLPAPFFKQTTTPATAPTTTAPLFTGLASATSAVAPITSASPSTDSASKPAFGFGINSVSSSSVSTTTSTATAASQPFLFGAPQASAASFTPAMGSIFQFGKPPALPTTTTVTTFSQSLHTAVPTATSSSAADFSGFGSTLATSAPATSSQPTLTFSNTSTPTFNIPFGSSAKSPLPSYPGANPQPAFGAAEGQPPGAAKPALAPSFGSSFTFGNSAAPAAAPTPAPPSMIKVVPAYVPTPIHPIFGGATHSAFGLKATASAFGAPASSQPAFGGSTAVFFGAATSSGFGATTQTASSGSSSSVFGSTTPSPFTFGGSAAPAGSGSFGINVATPGSSTTTGAFSFGAGQSGSTATSTPFAGGLGQNALGTTGQSTPFAFNVSSTTESKPVFGGTATPTFGLNTPAPGVGTSGSSLSFGASSAPAQGFVGVAPFGSAALSFSIGAGSKTPGARQRLQARRQHTRKK,percent of transfected cells showing colocalization,LacI-CFP-Nup50,24%
same,percent of transfected cells showing colocalization,LacI-CFP-Nup133,45%
same,percent of transfected cells showing colocalization,LacI-CFP-Nup107,26%
